The values below come from the supplement of paper PMC11741623.

The list shows a part of the results. Interaction screen of human proteins with wild-type SARS-CoV-2 proteins by split-DHFR complementation in yeast, 1 µg/mL methotrexate. Value = fitness of the pair (three or more lineages) minus that of the viral protein without a human partner, on a scale set by negative (0) and fused positive (1) controls, mean of up to three cultures; higher = more likely to interact. Active = false discovery rate below 0.05 (one-sided t-test) in at least one culture. Nearly all pairs are not hits, and differences among them are mostly noise (correlation between cultures about 0.3); most hits were seen in one culture only. Human sequences are the Swiss-Prot entries looked up by gene name; the clone may be another isoform. NSP2 values were corrected by the authors for a growth advantage. Listed are human proteins with a hit and a random twelfth of the others.

The assay concerns SARS-CoV-2 ORF9B. Description: yeast fitness gain over the viral ORF with no human partner (scaled fitness); higher = more likely to interact. As for the experimental part: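 Split mouse DHFR complementation in pooled diploid yeast: human ORFeome clones carry one fragment and viral ORFs the other; barcoded lineages compete in 1 µg/mL methotrexate and fitness is read by barcode sequencing in up to three cultures.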
Consider MAGEA10, P43363, for which the yeast fitness gain was inactive: 0.0154.

Regarding ZFYVE26, Q68DK2, the yeast fitness gain was inactive: -0.041.

For the substance SRGAP1, Q7Z6B7, the yeast fitness gain was inactive: -0.173.

As for FAM136A, Q96C01, the yeast fitness gain was inactive: -0.00259.

Take OR4D1, Q15615: the yeast fitness gain is inactive: 0.019.

As for TET2, Q6N021, the yeast fitness gain was inactive: 0.0785.

Regarding ZNF517, Q6ZMY9, the yeast fitness gain was inactive: 0.0292.

For PRR14L, Q5THK1, the yeast fitness gain is inactive: -0.00066.

As to IDH3B, O43837, the yeast fitness gain was inactive: 0.0116.

Regarding HAUS7, Q99871, the yeast fitness gain was inactive: 0.112.

As to KPNA1, P52294, the yeast fitness gain is inactive: -0.075.

Regarding TLK2, Q86UE8, the yeast fitness gain is inactive: -0.0994.

TIMM50, Q3ZCQ8: the yeast fitness gain was inactive: 0.0524.

As for NDRG4, Q9ULP0, the yeast fitness gain was inactive: 0.0359.

For OR4C6, Q8NH72, the yeast fitness gain was inactive: 0.279.

Consider HSPB7, Q9UBY9, for which the yeast fitness gain was inactive: -0.0735.

DESI2, Q9BSY9: the yeast fitness gain was inactive: 0.0514.

As for MCM9, Q9NXL9, the yeast fitness gain was inactive: -0.00359.

As for POLD2, P49005, the yeast fitness gain was inactive: 0.0155.

With PTCD1, O75127, the yeast fitness gain was inactive: -0.00335.

In the case of BNIP3L, O60238, the yeast fitness gain is inactive: -0.0847.

As for KLF6, Q99612, the yeast fitness gain was inactive: -0.109.

Consider HYDIN, Q4G0P3, for which the yeast fitness gain was inactive: -0.0178.

As for EGR3, Q06889, the yeast fitness gain was inactive: 0.039.

As to ZNF785, A8K8V0, the yeast fitness gain is inactive: -0.0566.

With FAM19A3, Q7Z5A8, the yeast fitness gain was inactive: 0.0391.

ZNF673, Q5JUW0: the yeast fitness gain is inactive: 0.0149.

With MAFF, Q9ULX9, the yeast fitness gain was inactive: -0.0601.

Take OXCT1, P55809: the yeast fitness gain was inactive: 0.0257.

On to ZNF611, Q8N823, for which the yeast fitness gain was inactive: 0.11.

IHH, Q14623: the yeast fitness gain was inactive: 0.0453.

Consider BHLHA15, Q7RTS1, for which the yeast fitness gain is inactive: -0.00902.

Regarding CABP5, Q9NP86, the yeast fitness gain was inactive: 0.00328.

Regarding RALYL, Q86SE5, the yeast fitness gain is inactive: 0.0356.

Turning to TLX3, O43711, the yeast fitness gain was inactive: 0.033.

In the case of RGS3, P49796, the yeast fitness gain was inactive: -0.0291.

Consider MT2A, P02795, for which the yeast fitness gain was inactive: -0.0122.
